Reference: the supplement of paper PMC11417369
The list shows a part of the results.

What follows are sequences tested on PfSIP2 AP2 domain 1 (GST-tagged) (assay: gcPBM binding intensity (ln(normalized median fluorescence intensity)); higher = stronger DNA binding).
In short: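 DNA-binding domains from P. falciparum, fused to GST and produced in E. coli, were put on an Agilent 4 × 180k double-stranded probe array for 1 h in 1× PBS holding 1% milk, 0.2 mg/ml BSA, 0.5% salmon testes DNA and 0.03% Triton X-100. Probes were primer-extended, 36 bp long and drawn from intergenic genomic regions, with negative controls included. After Alexa488 anti-GST antibody detection and a 488 nm scan, binding intensity was set as the highest Masliner-normalised natural-log median intensity across replicate spots of either probe orientation.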

Sequence	gcPBM binding intensity (ln)
TTTTTATTCAACAAAAATATCAAACATAATTATAAA [CACACA_negctrl_site616]	7.05
ATTTTTATGTCTTTCTATAAATCGAAAATATACATA [CACACA_negctrl_site477]	7.03
TTCCTTTAACCCTGCACACATACATACATTTATATG [CACACA_site3953]	7.61
ATATACAACTAAAGAACACACATCATTGTTCATTGG [CACACA_site3681]	6.9
TAAAATAGAAATATATGTACATATATATATGTATAT [XGTACX_site4134]	7.34
CGATATTCTAAGGATAGTACATAATAAAATAGAGTA [XGTACX_site4224]	6.92
ATTTATATTTTTTAATGTACATTTATATGTATACAA [XGTACX_site4555]	6.99
ATTTATGTTATTGTATGTACACAATATAATGTTATT [XGTACX_site5657]	7.24
ATTCTACACGCACATACACACATATAAATATAAATA [CACACA_site7582]	7.67
AAAAAAAAATATATATATATATATATATAATAAAAA [CACACA_negctrl_site639]	7.48
AAAAAAAAAAAATGTGCACACGCGTACAGACAAAAA [CACACA_site2005]	9.65
TAAAAAGTACATTATTCATGGCCTATTACATTTTTT [GTGCAC_negctrl_site282]	6.89
ATAATATATATGAAATGTACATAAATTTAATGCGAC [XGTACX_site5394]	7.5
ACACAAAAATAGTTTTTTATATTGTTAACCTTATAT [XGTACX_negctrl_site123]	6.9
ATATTTTACATATTTGCACACATATATTTAAATACA [CACACA_site4628]	7.27
ATGTGCACATGTAGAAGTACTTTTTCTTAAAATACT [XGTACX_site8341]	9.3
TATGTTTTATATAAGATGCACTTTTGTTATGCTTCA	8.55
CAAATACACGGACACACACACACAAAAAAAAAAAAA [CACACA_site6385]	7.33
AAATTATTGTAAAATAGTACAGTGAAACATAAAGTT [XGTACX_site589]	7.07
TAAATACAAGTAAAAAGTACAGAAAAATTATATATA [XGTACX_site1758]	7.05
TTTATTTTGTTTTCTTGTACATAAATAATTACATAT [XGTACX_site4227]	7.1
TTTATTTGGACATATACACACTTAAATATGTTTATT [CACACA_site6021]	6.91
AAGAGAAATGGGCACACACACACATATTATAGATAT [CACACA_site6828]	7.04

Sequence	gcPBM binding intensity (ln)
TATAAAAAATTCAATACACACCATATATAAATATAT [CACACA_site6060]	6.81
TATAATAATTCATAATGTACTTTTATCAAAAAAGTA [XGTACX_site6868]	6.82
TGAAATGAAAGAACAGCACACATATATATTATATAT [CACACA_site8613]	7.24
TATATTTTTTAAAAAAGTACAAAGTAATTATTGATT [XGTACX_site2420]	7.1
GTAGTACATTCTAGAATACACACCTATATATATATA [CACACA_site522]	9.3
ATATGAAAAACTTCATGTACTTATTATAAAATATAA [XGTACX_site2725]	6.88
CTTTTTTTTTTGTATTGTACTTTATTTTTACATCGT [XGTACX_site2918]	7.16
ATTCTAATTTTATGAAACGATTATTTTGAATTCATT [XGTACX_negctrl_site578]	6.93
ATTTTTAATTTTTTCACACATATATTTAAAATAAAA [CACACA_site4799]	7.09
GATTACCTTTTTTTTTTTTTTTTTTTTTTTTTTTTC [CACACA_negctrl_site147]	6.76
ATAAAAAAAAATATATGTACATATATAAATTGATAT [XGTACX_site7409]	7.24
TTATAGACATATATAGGTACACATATTTTCAATCCC [XGTACX_site8230]	6.98
ATTTATTAATCATATACACACATATATTTGTATTTA [CACACA_site1336]	7.05
TATTTTTTTAAAATAGGTACACAATCAAACATTTAT [XGTACX_site8785]	6.85
ACCTCATAATATTTAACACACAAAATTATCTGTATG [CACACA_site5015]	7.43
CGTCCAAAATATCCTTCACACACGAACAGTTTCATT [CACACA_site2729]	7.13
TTTAAATAAAAATGGAGTACTCTAAAAAAAAAAAAA [XGTACX_site1233]	7.24
CTATAATATTATAACAGTACATAATATTATATATAT [XGTACX_site1414]	7.54
TTTATATAATATTCTACACACCAACAACAAACATAT [CACACA_site4478]	7.51
ATATATATATATAATACACACATAAATGAATATATA [CACACA_site316]	8.88
GCATTGATCAAACATACACACATGGTTAATAAAAAT [CACACA_site2085]	7.15
GTGATTTCTATGAATTGTACTTAAATATAGTTATAT [XGTACX_site231]	7.09
